# Laboratory results from the supplement of paper PMC3334620.
# In all, about 33,000 sequences were measured (“E-score (-0.5 to 0.5)”: median about -0.012, highest 2% from about 0.27 on). The list shows a part of the results.
# Target: T1, Vhr1 (UniProt P40522)
# T1 sequence: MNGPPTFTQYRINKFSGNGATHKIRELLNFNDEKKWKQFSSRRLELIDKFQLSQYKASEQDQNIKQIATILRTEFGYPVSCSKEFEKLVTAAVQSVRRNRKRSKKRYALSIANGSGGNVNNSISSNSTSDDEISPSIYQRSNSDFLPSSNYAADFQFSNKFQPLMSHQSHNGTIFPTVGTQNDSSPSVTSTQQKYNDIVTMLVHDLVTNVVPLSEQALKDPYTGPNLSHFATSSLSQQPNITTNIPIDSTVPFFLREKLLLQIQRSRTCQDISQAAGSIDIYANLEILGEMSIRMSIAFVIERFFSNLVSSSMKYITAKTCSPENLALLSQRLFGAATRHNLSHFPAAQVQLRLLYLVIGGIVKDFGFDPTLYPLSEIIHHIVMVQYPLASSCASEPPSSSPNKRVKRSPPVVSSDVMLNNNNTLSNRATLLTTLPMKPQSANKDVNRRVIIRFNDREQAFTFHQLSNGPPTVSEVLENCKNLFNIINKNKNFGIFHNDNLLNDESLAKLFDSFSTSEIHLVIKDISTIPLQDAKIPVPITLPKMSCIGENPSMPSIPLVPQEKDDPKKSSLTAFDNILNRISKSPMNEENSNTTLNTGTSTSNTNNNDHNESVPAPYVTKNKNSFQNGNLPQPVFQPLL
# Test: PBM E-score (8-mer binding enrichment) (E-score (-0.5 to 0.5)); higher = stronger / more preferred TF binding; most listed sequences are background and not binding sites
# Conditions: protein concentration: 200 nM; construct: GST-full length
# Procedure, shortened: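 Bound GST-tagged yeast transcription factors, applied at about 100-200 nM to double-stranded universal all-10-mer Agilent arrays, were detected with fluorescent anti-GST. Scans were normalised with masliner. A modified Wilcoxon-Mann-Whitney statistic, the E-score, was assigned to each ungapped eight-base word pooled with its reverse complement by the Universal PBM Analysis Suite.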
row,Sequence,PBM E-score
1,AAGTCCCG,-0.22
2,ACGAGAAA,0.0269
3,AGCTTTGC,-0.241
4,AAGTTAAT,-0.0891
5,CTATTCCC,-0.2
6,ATTGGGAA,-0.0821
7,TGCTTTAA,0.02
8,GACGTTCA,-0.194
9,GCGGCCCA,0.191
10,CTACATTC,-0.249
11,GGAAAACC,-0.126
12,GCCCGTCA,-0.269
13,CATCCATC,0.0866
14,GCGTCGAC,0.197
15,GTTCTTGA,-0.0686
16,CCCTTACA,-0.0137
17,CCGAGTGC,0.154
18,AATCCTGA,0.161
19,CATGTTCA,-0.036
20,ATTAGTAA,0.12
21,ATCGTTCG,0.09
22,GAGCCCTA,-0.114
23,CACGAATC,0.288
24,CGTATACA,0.137
25,CACTTCTG,0.0529

row,Sequence,PBM E-score
1,CATTTTTA,-0.333
2,AGCTGCTA,-0.202
3,CACTAATC,0.19
4,GCTACGAC,0.0912
5,CATGAGTC,0.477
6,TAGAGCCA,-0.0241
7,AATGAATC,0.23
8,CTGGAAAC,-0.0736
9,GCTACACA,0.121
10,AACGACTC,0.292
11,CAGCGCGC,0.0451
12,ACCGGCAG,-0.121
13,AACCTAAA,-0.031
14,AGATGATA,0.0454
15,AGGTACGA,0.0204
16,GAAGCCAC,0.0168
17,AAACAGCT,0.119
18,GAAGCAGA,-0.215
19,GATGAATA,0.149
20,CACACTTC,-0.0534
21,CATTGCCG,-0.0476
22,AGTAGACA,-0.00055
23,CCCGTCAA,-0.315
24,CCTTGACA,-0.105
25,CTTTTTGA,-0.218

row,Sequence,PBM E-score
1,ACATATCT,0.0618
2,ACTTAGCC,-0.0801
3,CGCTGTTA,-0.0856
4,AATGTGTG,0.26
5,AGTGGGTG,0.268
6,AACCCTGG,-0.0314
7,AGAGTCAG,0.399
8,ATTGTGTA,0.184
9,AGCAGGAG,-0.0156
10,GTGTCGAA,0.128
11,AACAAAGG,-0.0471
12,CCGACTTA,-0.0517
13,CCACCACA,-0.137
14,ATTATGAC,0.0885
15,CGGGACCC,-0.181
16,CTTGAGGA,-0.11
17,CTTTGTTA,-0.158
18,CACGCTCG,0.0681
19,AGCGCCCC,-0.141
20,ACCCGTCA,0.0105
21,AGTGCAAA,0.00965
22,GTGAGCAC,0.103
23,CAGGTGCA,0.162
24,CAACATAA,0.108
25,CAAATCGG,-0.112

row,Sequence,PBM E-score
1,AATGGGAC,0.0215
2,CACGATCG,0.109
3,GTCGTCCA,-0.0218
4,ACATATGA,0.0267
5,CGGACTCC,0.2
6,AGGGTTAG,0.0335
7,AAGACCGG,-0.166
8,CCTCAGGC,0.0224
9,ACCCTTAC,-0.0384
10,CGATAAAA,-0.161
11,AACCTTGC,-0.0252
12,CTTTCAAC,-0.128
13,AAATACAC,-0.011
14,CAACTGCA,-0.00961
15,CAGCTAGG,-0.209
16,CACGTCTG,0.103
17,ACGTCACA,-0.0538
18,CGATATAG,0.161
19,CGGTGAAC,-0.0712
20,GGGCGACC,-0.121
21,GCGGAACA,0.00367
22,GCCGTTTA,-0.0373
23,CCTACGGA,-0.0835
24,CGTTTGTA,-0.0254
25,GAAGTGGC,0.0181

row,Sequence,PBM E-score
1,AGGCGCTG,0.00932
2,ATGTTCAC,-0.00415
3,CCGACATC,0.179
4,CTCTTCAG,-0.0887
5,CATGCTCC,-0.08
6,AGTGCGGG,-0.0413
7,AGAACAGA,-0.103
8,CTTTTGAC,-0.194
9,TGGAAAAA,-0.15
10,CGACCAAG,-0.126
11,AGTACTAG,0.144
12,TATCCGCA,0.163
13,GAGAATCA,0.184
14,ATTCCAGA,-0.0176
15,CATGGGGA,0.117
16,GATGTCAA,-0.114
17,TATATATA,0.318
18,ATGCATGG,0.28
19,AGGGAATA,-0.0529
20,ACAAGGAC,0.0747
21,CGTTATTA,-0.198
22,CTCGTCTC,-0.12
23,AGACCTCC,-0.105
24,ACGTACGC,-0.204
25,CAAGCATC,0.0248

row,Sequence,PBM E-score
1,GTAAGTTA,-0.0905
2,ATCTGGTA,-0.00683
3,GCACGCGC,0.0771
4,ACGAGATC,-0.0876
5,AGGCTTCG,-0.0693
6,ACGCTCCG,-0.0609
7,GATCTTAA,-0.0349
8,ATGTATAG,0.252
9,CACCGGCA,0.0639
10,CTGCGTCA,-0.14
11,AGTTCGTC,0.0641
12,ATTGCCTA,-0.17
13,CGCGTCCC,-0.0659
14,ACTGGGCT,-0.00153
15,AGTAATTG,0.101
16,GTTAAGGA,-0.0499
17,AGACTGAC,0.114
18,CTTGCCTA,-0.261
19,GCTGAAGC,-0.11
20,CTCTCTTC,-0.219
21,AAGCTCAA,-0.198
22,AACTTTAG,-0.23
23,AGCCCTCC,-0.09
24,CGAGGCGA,0.153
25,AATACACG,-0.179

row,Sequence,PBM E-score
1,AGGCGGAC,0.0539
2,CGACATGC,-0.0401
3,AGTTACGA,0.0138
4,GACACGTC,0.0792
5,CTTCAAGA,-0.266
6,GATATTAA,0.169
7,AGCGAGCG,0.0572
8,GATCTTAC,-0.186
9,ACGTGCAC,-0.173
10,GCCTGAGC,-0.058
11,ACTACGGG,-0.0349
12,GTGGCAAA,-0.131
13,ATGGGGGG,-0.0708
14,CTCTCTAA,-0.193
15,ATCTCCTA,-0.0969
16,CTGAGCCC,0.205
17,ACTACACC,0.0897
18,AGGTCTCC,-0.0486
19,CAATAGAA,-0.22
20,CTTTCGGA,-0.239
21,GAGCATTA,0.0481
22,AGGAACGC,-0.12
